Results published in PMC4336329 (PLoS ONE, 2015).
In all, about 310,000 compounds went through this assay and about 2,200 (0.71%) showed an effect of 50% or more. The effect is printed as a negative number. The list shows a part of the results.

target: human ether-à-go-go-related gene (hERG) potassium channel (human, UniProt Q12809); assay: primary screen, population patch clamp on CHO cells stably expressing hERG
Sequence (Q12809 whole entry, looked up): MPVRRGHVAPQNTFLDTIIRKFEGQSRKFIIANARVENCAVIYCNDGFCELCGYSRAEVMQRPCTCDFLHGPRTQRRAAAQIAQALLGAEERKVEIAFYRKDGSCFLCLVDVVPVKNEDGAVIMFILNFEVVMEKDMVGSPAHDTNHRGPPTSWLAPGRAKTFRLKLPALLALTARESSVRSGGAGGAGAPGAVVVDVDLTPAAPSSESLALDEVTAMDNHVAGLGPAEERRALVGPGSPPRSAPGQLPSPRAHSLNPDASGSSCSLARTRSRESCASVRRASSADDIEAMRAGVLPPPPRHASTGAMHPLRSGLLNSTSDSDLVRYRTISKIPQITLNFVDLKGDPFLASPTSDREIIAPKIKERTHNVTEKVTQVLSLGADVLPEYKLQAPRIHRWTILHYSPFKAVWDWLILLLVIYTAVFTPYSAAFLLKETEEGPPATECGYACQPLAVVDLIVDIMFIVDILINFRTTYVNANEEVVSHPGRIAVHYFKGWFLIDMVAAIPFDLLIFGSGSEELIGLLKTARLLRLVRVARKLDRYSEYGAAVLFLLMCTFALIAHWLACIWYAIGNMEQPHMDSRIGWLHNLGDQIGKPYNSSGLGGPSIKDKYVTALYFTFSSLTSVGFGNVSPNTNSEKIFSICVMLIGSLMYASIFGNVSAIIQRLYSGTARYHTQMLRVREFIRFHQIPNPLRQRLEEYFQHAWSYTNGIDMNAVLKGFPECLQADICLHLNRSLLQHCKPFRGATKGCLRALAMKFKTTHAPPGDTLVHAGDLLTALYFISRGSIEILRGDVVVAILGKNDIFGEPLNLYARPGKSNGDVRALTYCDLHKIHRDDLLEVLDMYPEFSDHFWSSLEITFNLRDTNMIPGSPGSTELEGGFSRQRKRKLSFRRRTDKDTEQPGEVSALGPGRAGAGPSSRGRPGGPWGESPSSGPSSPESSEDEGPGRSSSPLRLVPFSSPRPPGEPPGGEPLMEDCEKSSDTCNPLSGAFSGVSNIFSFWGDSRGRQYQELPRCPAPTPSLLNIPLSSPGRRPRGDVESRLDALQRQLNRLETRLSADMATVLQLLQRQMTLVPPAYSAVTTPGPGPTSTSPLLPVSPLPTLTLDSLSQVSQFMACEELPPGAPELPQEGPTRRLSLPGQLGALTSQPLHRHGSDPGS

Structure (SMILES) | hERG current change (%, negative = inhibition) at 1uM [%]
CC1(O)c2ccccc2C(=O)N1CCc1ccccc1F (centres unmarked) | 0.432
COc1ccc(C(=O)Nc2ccc(C(=O)OCC(=O)c3cccc4ccccc34)cc2)cc1 | 9.13
Cc1c(C(=O)N2CCCC2)oc2c1-c1nn(CC(=O)NCCCN3CCCCC3)cc1CC2 | 17.6
COc1ccc(CNC(=O)COC(=O)c2cccs2)cc1 | 11.6
Cc1cc(C)n(CCNC(=O)CC2C(=O)NCCN2Cc2ccccc2C(F)(F)F)n1 (centres unmarked) | 12.4
COc1ccc(S(=O)(=O)N2CCN(CC(=O)Nc3ccccc3OC)CC2)cc1 | 4.98
C/C=C/COC(=O)c1[nH]c2c(c1C)C(=O)CC(c1ccco1)C2 (centres unmarked) | 2.64
COc1ccc(CCNC(=O)CSc2nccc(=O)[nH]2)cc1OC | 15.2
CC(C)CCn1c(=O)c(C(=O)NCc2ccco2)c(O)c2ccccc21 | 16
COc1cccc(NC(=O)CN(C)S(=O)(=O)c2ccc3c(c2)NC(=O)CS3)c1 | 5.86
O=C(N/N=C\c1cc2c(cc1Cl)OCO2)c1ccc(Br)s1 | 11.1
CCOC(=O)c1ccccc1NC(=O)c1c(F)c(F)c(F)c(F)c1F | 16.3
Cc1ccc2[nH]c(=O)c(-c3nc4c(C)cccn4c3NCc3ccco3)cc2c1 | 10.7
CC(C)OC(=O)CC1=NC(=O)CS1 | 11.8
N#CCSc1nnc(C2CCCCC2)n1-c1ccccc1 | 13.6
CCOC(=O)C(C)n1cnc2sc3c(c2c1=O)CCC3 (centres unmarked) | 3.97
CC1(C)CC(NS(=O)(=O)c2ccccc2)CC(C)(C)N1 | 3.34
CC(C)=CCN1CCN(Cc2c(C)nn(C)c2Cl)CC1CCO (centres unmarked) | 1.23
CN(C)CC(C)(C)CNC(=S)Nc1cc(S(=O)(=O)N2CCOCC2)ccc1Cl | 5.81
S=c1[nH]nc(-c2ccco2)n1/N=C/c1ccccc1 | 13.2
CCN(CC)c1ccc2cc(NC(=O)CCC(=O)O)c(=O)oc2c1 | 16.4
COc1ccc(NC(C)=O)cc1C | 3.41
Cc1ccc(NC(=O)CCNC(=O)c2ccco2)cc1F | 9.22
Nc1c2c3c(sc2nc(=O)n1N)CCCC3 | 15.3
CCn1c(-c2cc(-c3cc(C)ccc3C)nc3ccccc23)n[nH]c1=S | 8.52
O=[N+]([O-])c1cccnc1Sc1n[nH]c(-c2ccc(Cl)cc2)n1 | 12.1
